Consider 32 sequences from paper PMC12820563.

Some of the results follow. The list includes weakly bound sequences.

This assay deals with T1, MBP-FoxP3dN (UniProt Q99JB6).
T1 sequence: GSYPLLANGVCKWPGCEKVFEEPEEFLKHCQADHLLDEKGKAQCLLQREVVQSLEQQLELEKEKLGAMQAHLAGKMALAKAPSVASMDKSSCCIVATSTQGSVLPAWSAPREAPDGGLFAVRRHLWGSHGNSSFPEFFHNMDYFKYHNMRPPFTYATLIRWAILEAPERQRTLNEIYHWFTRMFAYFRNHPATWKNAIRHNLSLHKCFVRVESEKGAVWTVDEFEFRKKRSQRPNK
Nature of the assay: PD-seq (MBP pull-down with sequencing). To be noted: 20 mM Tris-HCl pH 7.5, 100 mM NaCl, 1.5 mM MgCl2, 0.4 uM protein, 0.1 uM dsDNA library, 30 min, room temperature, amylose pull-down; high values mean tight binding; double strand, one strand shown.
Turning to “GATGATTGTTCTCCCAGCTGATGAATTGGGGTCATCGAGTAAACAAATTTTCCTAATCTTTCTGTTCAAGCGCCATCTAC”, the binding signal (RPM ratio (pull-down/input)) amounted to 0.638. For “GATGATTGTTCTCCCAGCTGATGAATTGCGTCTTTCGAGTAAACAAATTTTCCTAATCTTTCTGTTCAAGCGCCATCTAC” the value was 1.6; for “GATGATTGTTCTCCCAGCTGATGAATTCTTCGTATCGAGTAAACAAATTTTCCTAATCTTTCTGTTCAAGCGCCATCTAC”, 0.341. The result for “GATGATTGTTCTCCCAGCTGATGAATTCAAACGCTCGAGTAAACAAATTTTCCTAATCTTTCTGTTCAAGCGCCATCTAC” reads 0.369.

Take “GATGATTGTTCTCCCAGCTGATGAATTGGGTGCTTCGAGTAAACAAATTTTCCTAATCTTTCTGTTCAAGCGCCATCTAC”: the binding signal (RPM ratio (pull-down/input)) came out at 0.629. For “GATGATTGTTCTCCCAGCTGATGAATTTAACTCATCGAGTAAACAAATTTTCCTAATCTTTCTGTTCAAGCGCCATCTAC” the value was 0.444. For “GATGATTGTTCTCCCAGCTGATGAATTAGTCCTATCGAGTAAACAAATTTTCCTAATCTTTCTGTTCAAGCGCCATCTAC” the value was 0.552; for “GATGATTGTTCTCCCAGCTGATGAATTAAGCGACTCGAGTAAACAAATTTTCCTAATCTTTCTGTTCAAGCGCCATCTAC”, 2.91.

With “GATGATTGTTCTCCCAGCTGATGAATTACTTTTCTCGAGTAAACAAATTTTCCTAATCTTTCTGTTCAAGCGCCATCTAC”, the binding signal (RPM ratio (pull-down/input)) was 0.544. For “GATGATTGTTCTCCCAGCTGATGAATTTAAACGATCGAGTAAACAAATTTTCCTAATCTTTCTGTTCAAGCGCCATCTAC” the value was 0.251. As to “GATGATTGTTCTCCCAGCTGATGAATTCGCGATGTCGAGTAAACAAATTTTCCTAATCTTTCTGTTCAAGCGCCATCTAC”, the binding signal (RPM ratio (pull-down/input)) came out at 0.585. For “GATGATTGTTCTCCCAGCTGATGAATTCTCCATCTCGAGTAAACAAATTTTCCTAATCTTTCTGTTCAAGCGCCATCTAC”, the binding signal (RPM ratio (pull-down/input)) came out at 0.276. For “GATGATTGTTCTCCCAGCTGATGAATTTACCAGCTCGAGTAAACAAATTTTCCTAATCTTTCTGTTCAAGCGCCATCTAC” the value was 0.349. Regarding “GATGATTGTTCTCCCAGCTGATGAATTTCTCCACTCGAGTAAACAAATTTTCCTAATCTTTCTGTTCAAGCGCCATCTAC”, the binding signal (RPM ratio (pull-down/input)) worked out at 0.272.

Consider “GATGATTGTTCTCCCAGCTGATGAATTCCCTGGCTCGAGTAAACAAATTTTCCTAATCTTTCTGTTCAAGCGCCATCTAC”, for which the binding signal (RPM ratio (pull-down/input)) was determined as 0.215. “GATGATTGTTCTCCCAGCTGATGAATTCCTTAACTCGAGTAAACAAATTTTCCTAATCTTTCTGTTCAAGCGCCATCTAC”: the binding signal (RPM ratio (pull-down/input)) turned out to be 0.222. For “GATGATTGTTCTCCCAGCTGATGAATTGGAACAATCGAGTAAACAAATTTTCCTAATCTTTCTGTTCAAGCGCCATCTAC” the value was 0.385; for “GATGATTGTTCTCCCAGCTGATGAATTCCGCAGTTCGAGTAAACAAATTTTCCTAATCTTTCTGTTCAAGCGCCATCTAC”, 1.27; for “GATGATTGTTCTCCCAGCTGATGAATTCTCTAAATCGAGTAAACAAATTTTCCTAATCTTTCTGTTCAAGCGCCATCTAC”, 0.219. For the sequence “GATGATTGTTCTCCCAGCTGATGAATTGAGTCGGTCGAGTAAACAAATTTTCCTAATCTTTCTGTTCAAGCGCCATCTAC”, the binding signal (RPM ratio (pull-down/input)) amounted to 0.295. The result for “GATGATTGTTCTCCCAGCTGATGAATTCCCACAGTCGAGTAAACAAATTTTCCTAATCTTTCTGTTCAAGCGCCATCTAC” reads 0.243; that for “GATGATTGTTCTCCCAGCTGATGAATTTAACCCATCGAGTAAACAAATTTTCCTAATCTTTCTGTTCAAGCGCCATCTAC”, 0.3. In the case of “GATGATTGTTCTCCCAGCTGATGAATTTTAAATCTCGAGTAAACAAATTTTCCTAATCTTTCTGTTCAAGCGCCATCTAC”, the binding signal (RPM ratio (pull-down/input)) stood at 0.301. With “GATGATTGTTCTCCCAGCTGATGAATTGGGCTTATCGAGTAAACAAATTTTCCTAATCTTTCTGTTCAAGCGCCATCTAC”, the binding signal (RPM ratio (pull-down/input)) was 1.04. Turning to “GATGATTGTTCTCCCAGCTGATGAATTAGATGTTTCGAGTAAACAAATTTTCCTAATCTTTCTGTTCAAGCGCCATCTAC”, the binding signal (RPM ratio (pull-down/input)) worked out at 2.73. Regarding “GATGATTGTTCTCCCAGCTGATGAATTGAGTATATCGAGTAAACAAATTTTCCTAATCTTTCTGTTCAAGCGCCATCTAC”, the binding signal (RPM ratio (pull-down/input)) was 1.7.

For the sequence “GATGATTGTTCTCCCAGCTGATGAATTCAATGCATCGAGTAAACAAATTTTCCTAATCTTTCTGTTCAAGCGCCATCTAC”, the binding signal (RPM ratio (pull-down/input)) came to 1.48. Consider “GATGATTGTTCTCCCAGCTGATGAATTAAAAGCGTCGAGTAAACAAATTTTCCTAATCTTTCTGTTCAAGCGCCATCTAC”, for which the binding signal (RPM ratio (pull-down/input)) is 0.552. The result for “GATGATTGTTCTCCCAGCTGATGAATTGGCTCGCTCGAGTAAACAAATTTTCCTAATCTTTCTGTTCAAGCGCCATCTAC” reads 0.261. For “GATGATTGTTCTCCCAGCTGATGAATTGGTCATCTCGAGTAAACAAATTTTCCTAATCTTTCTGTTCAAGCGCCATCTAC” the value was 0.89; for “GATGATTGTTCTCCCAGCTGATGAATTCGTTACTTCGAGTAAACAAATTTTCCTAATCTTTCTGTTCAAGCGCCATCTAC”, 0.718; for “GATGATTGTTCTCCCAGCTGATGAATTGAAATAGTCGAGTAAACAAATTTTCCTAATCTTTCTGTTCAAGCGCCATCTAC”, 0.308.
